Assay results taken from the antibiotic and cytotoxicity screens of Wong et al. (2023).
The list shows a part of the results.

Key:
[1] = test system: HSkMC (human skeletal muscle cells); test: cytotoxicity call (relative viability < 0.9); conditions: 10 µM
[2] = test system: HepG2; test: cytotoxicity call (relative viability < 0.9); conditions: 10 µM
[3] = test system: S. aureus RN4220; test: growth inhibition call (relative growth <= 0.2); conditions: 50 µM

| SMILES | cytotoxicity call [1] | cytotoxicity call [2] | growth inhibition call [3] |
| --- | --- | --- | --- |
| COc1ccc2c3c(n(c2c1)C)[C@H](CO)N(C[C@]13CCN(CC1)C(=O)c1cccnc1)C(=O)c1cccnc1 | inactive | inactive | inactive |
| CCC(=O)N1C[C@]2(CN(C2)S(=O)(=O)C)c2c(n(c3cc(ccc23)OC)C)[C@H]1CO | inactive | inactive | inactive |
| C[C@H]1CN([C@@H](C)CO)C(=O)c2cccc(NC(=O)C3CCCCC3)c2O[C@H]1CN(C)Cc1ccc(Oc2ccccc2)cc1 | inactive | inactive | inactive |
| COc1ccc(S(=O)(=O)Nc2ccc3c(c2)CC(=O)N([C@@H](C)CO)C[C@H](C)[C@H](CN(C)Cc2ccncc2)O3)cc1 | inactive | inactive | inactive |
| Fc1cnc(N2C[C@H]3COC[C@@H]3C2)nc1 | inactive | inactive | inactive |
| C[C@H](CO)N1C[C@H](C)[C@H](CN(C)Cc2ccc(-c3ccccc3)cc2)Oc2c(NC(=O)C3CCCCC3)cccc2C1=O | inactive | inactive | inactive |
| COc1ccc(NC(=O)N(C)C[C@H]2Oc3ccc(NC(=O)Nc4ccc(C(F)(F)F)cc4)cc3CC(=O)N([C@H](C)CO)C[C@@H]2C)cc1 | inactive | inactive | inactive |
| C[C@H](CO)N1C[C@H](C)[C@H](CN(C)Cc2ccncc2)Oc2cc(C#CCN(C)C)ccc2S1(=O)=O | inactive | inactive | inactive |
| C[C@H]1CN([C@@H](C)CO)C(=O)c2cccc(NS(C)(=O)=O)c2O[C@@H]1CN(C)S(=O)(=O)c1ccccc1 | inactive | inactive | inactive |
| Cc1noc(C)c1S(=O)(=O)Nc1ccc2c(c1)C(=O)N([C@@H](C)CO)C[C@@H](C)[C@@H](CN(C)Cc1ccc3c(c1)OCO3)O2 | inactive | inactive | inactive |
| C[C@@H]1CN([C@H](C)CO)C(=O)Cc2cc(NC(=O)CCN3CCOCC3)ccc2O[C@H]1CN(C)C(=O)Nc1ccc(F)cc1 | inactive | inactive | inactive |
| COc1ccc(CN(C)C[C@@H]2OCCCC[C@@H](C)Oc3ccc(NC(=O)NC4CCCCC4)cc3C(=O)N([C@@H](C)CO)C[C@H]2C)cc1 | inactive | inactive | inactive |
| C[C@@H]1CN([C@@H](C)CO)C(=O)Cc2cc(NC(=O)Nc3cccc4ccccc34)ccc2O[C@H]1CN(C)Cc1ccc(C(=O)O)cc1 | inactive | inactive | inactive |
| O=C(C[C@@H]1C[C@@H]2c3cc(NC(=O)Nc4ccccc4)ccc3O[C@@H]2[C@@H](CO)O1)NCCN1CCCCC1 | inactive | inactive | inactive |
| NCc1cn(-c2ccccc2)nc1C12CC3CC(CC(C3)C1)C2 | active | active | active |
| C[C@H]1CN([C@@H](C)CO)C(=O)c2cccc(NC(=O)c3cnccn3)c2O[C@H]1CN(C)S(C)(=O)=O | inactive | inactive | inactive |
| C[C@H]1CN([C@@H](C)CO)C(=O)c2cc(NC(=O)Nc3ccc(C(F)(F)F)cc3)ccc2O[C@@H]1CN(C)C(=O)NC1CCCCC1 | inactive | inactive | inactive |
| CO[C@@H](CN(C)C(=O)c1ccc2c(c1)OCO2)[C@@H](C)CN([C@@H](C)CO)S(=O)(=O)c1ccc(C)cc1 | inactive | inactive | inactive |
| COc1ccc(S(=O)(=O)Nc2ccc3c(c2)C(=O)N([C@@H](C)CO)C[C@H](C)[C@H](CN(C)C(=O)C2CCCCC2)OCCCC[C@@H](C)O3)cc1 | inactive | inactive | inactive |
| CCCCC(CC)COC(=O)C(C#N)=C(c1ccccc1)c1ccccc1 (stereo not given) | inactive | inactive | inactive |
| C[C@H]1CCCCO[C@H](CN(C)S(=O)(=O)c2ccc(F)cc2)[C@@H](C)CN([C@@H](C)CO)C(=O)c2cc(NC(=O)Nc3ccc(F)cc3)ccc2O1 | inactive | inactive | inactive |
| CN1CCN(C(=O)C[C@H]2CC[C@@H]3[C@H](COC[C@H](O)CN3C(=O)C3CCCC3)O2)CC1 | inactive | inactive | inactive |
| Cc1noc(C)c1S(=O)(=O)Nc1cccc2c1O[C@@H](CN(C)S(=O)(=O)c1ccc(F)cc1)[C@@H](C)CN([C@H](C)CO)C2=O | inactive | inactive | inactive |
| COc1ccc(CN(C)C[C@@H]2Oc3ccc(NC(=O)Nc4ccc(C(F)(F)F)cc4)cc3C(=O)N([C@H](C)CO)C[C@H]2C)cc1 | active | active | inactive |
| COCC#Cc1ccc2c(c1)O[C@@H](CN(C)Cc1ccc(F)cc1)[C@H](C)CN([C@H](C)CO)S2(=O)=O | inactive | inactive | inactive |
| C[C@@H]1CCCCO[C@@H](CN(C)Cc2ccccc2)[C@@H](C)CN([C@H](C)CO)C(=O)c2cc(NC(=O)Nc3ccc(C(F)(F)F)cc3)ccc2O1 | inactive | active | inactive |
| FCOC(C(F)(F)F)C(F)(F)F | inactive | inactive | inactive |
| COc1cccc(S(=O)(=O)Nc2ccc3c(c2)[C@@H]2C[C@H](CC(=O)N4CCCCC4)O[C@H](CO)[C@@H]2O3)c1 | inactive | inactive | inactive |

| SMILES | cytotoxicity call [1] | cytotoxicity call [2] | growth inhibition call [3] |
| --- | --- | --- | --- |
| C[C@H](CO)N1C[C@H](C)[C@H](CN(C)C(=O)Nc2ccc(F)cc2)OCCCC[C@H](C)Oc2ccc(NC(=O)C3CCCCC3)cc2C1=O | inactive | inactive | inactive |
| O=C(NCCO)c1cc2ccccc2oc1=O | inactive | inactive | inactive |
| C[C@@H]1CCCCO[C@H](CN(C)C(=O)CCC(F)(F)F)[C@@H](C)CN([C@H](C)CO)C(=O)c2cc(NC(=O)C3CCCCC3)ccc2O1 | inactive | inactive | inactive |
| CCn1nc(C)cc1C(=O)NN | inactive | inactive | inactive |
| C[C@@H]1CN([C@@H](C)CO)C(=O)Cc2cc(NC(=O)CCCN(C)C)ccc2O[C@@H]1CN(C)S(=O)(=O)c1ccc(F)cc1 | inactive | inactive | inactive |
| COc1ccc(NC(=O)Nc2cccc3c2O[C@@H](CN(C)Cc2ccc(Cl)c(Cl)c2)[C@@H](C)CN([C@@H](C)CO)C3=O)cc1 | inactive | inactive | inactive |
| O=C(C[C@H]1C[C@H]2c3cc(NS(=O)(=O)c4ccccc4)ccc3O[C@H]2[C@@H](CO)O1)NCC(F)(F)F | inactive | inactive | inactive |
| C[C@@H]1CN([C@@H](C)CO)C(=O)c2cc(NC(=O)Nc3ccc(C(F)(F)F)cc3)ccc2O[C@@H](C)CCCCO[C@H]1CN(C)Cc1ccncc1 | inactive | inactive | inactive |
| Cc1ccc(S(=O)(=O)Nc2ccc3c(c2)CC(=O)N([C@H](C)CO)C[C@@H](C)[C@@H](CN(C)Cc2ccncc2)O3)cc1 | inactive | active | inactive |
| COCCOC(=O)N1C(=O)[C@@]2(c3cc(C#Cc4ccc(OC)cc4)ccc31)[C@H](C(=O)N1CCc3cc(OC)c(OC)cc3C1)[C@H]1C(=O)O[C@H](c3ccccc3)[C@H](c3ccccc3)N1[C@@H]2c1ccc(OCCO)cc1 | inactive | inactive | inactive |
| NS(=O)(=O)c1cc(C(=O)O)c(NCc2ccco2)cc1Cl | inactive | inactive | inactive |
| C[C@@H]1CN([C@H](C)CO)C(=O)c2cc(NS(=O)(=O)c3cccs3)ccc2O[C@@H](C)CCCCO[C@@H]1CN(C)S(C)(=O)=O | inactive | inactive | inactive |
| C[C@@H]1CCCCO[C@H](CN(C)Cc2ccccc2)[C@@H](C)CN([C@@H](C)CO)C(=O)c2cc(NC(=O)Nc3ccc(C(F)(F)F)cc3)ccc2O1 | active | active | inactive |
| C[C@@H]1CN([C@@H](C)CO)C(=O)c2c(c3ccccc3n2C)-c2ccccc2CO[C@@H]1CN(C)Cc1ccc(Oc2ccccc2)cc1 | inactive | inactive | inactive |
| CC1(C)S[C@H]2[C@@H](NC(=O)[C@@H](N)c3ccccc3)C(=O)N2[C@@H]1C(=O)O | inactive | active | inactive |
| Cc1c(NC(=O)c2cc3c(s2)CCCC3)cccc1-c1cn(C)c(=O)c(Nc2ccc([C@H]3C(=O)N(C)CCN3C)cc2)n1 | inactive | inactive | inactive |
| COc1ccc(-c2cc(=O)c3c(O)c(OC)c(OC)c(OC)c3o2)cc1OC | inactive | active | inactive |
| C[C@H]1CN([C@@H](C)CO)C(=O)c2cc(-c3ccc(C(=O)N(C)C)cc3)cnc2O[C@@H]1CN(C)C(=O)c1ccncc1 | inactive | inactive | inactive |
| Cc1noc(C)c1NC(=O)Nc1ccc2c(c1)CC(=O)N([C@@H](C)CO)C[C@@H](C)[C@H](CN(C)S(=O)(=O)c1cn(C)cn1)O2 | inactive | inactive | inactive |
| C[C@@H]1CCCCO[C@H](CN(C)CC2CCCCC2)[C@@H](C)CN([C@H](C)CO)C(=O)c2cc(NS(=O)(=O)c3cccs3)ccc2O1 | inactive | inactive | inactive |
| CC(C)NC(=O)N(C)C[C@@H]1Oc2ccc(NC(=O)C3CCCCC3)cc2CC(=O)N([C@@H](C)CO)C[C@@H]1C | inactive | inactive | inactive |
| O=C(C[C@@H]1CC[C@@H]2[C@H](COC[C@H](O)CN2S(=O)(=O)c2ccc(F)cc2)O1)NCc1ccncn1 | inactive | inactive | inactive |
| Cc1ccc(S(=O)(=O)Nc2cccc3c2O[C@H](CN(C)C(=O)NC(C)C)[C@@H](C)CN([C@@H](C)CO)C3=O)cc1 | inactive | inactive | inactive |
| COc1ccc(CNC(=O)C[C@@H]2CC[C@H]3[C@@H](COC[C@H](O)CN3S(=O)(=O)c3ccc(C)cc3)O2)cc1 | inactive | inactive | inactive |
| COc1ccc(S(=O)(=O)Nc2ccc3c(c2)CC(=O)N([C@@H](C)CO)C[C@@H](C)[C@H](CN(C)S(=O)(=O)c2cn(C)cn2)O3)cc1 | inactive | inactive | inactive |
| C[C@H]1CN([C@@H](C)CO)C(=O)Cc2cc(NS(=O)(=O)c3ccc(F)cc3)ccc2O[C@H]1CN(C)S(=O)(=O)c1ccccc1 | inactive | inactive | inactive |
| Cc1cccc(S(=O)(=O)N2C[C@@H](O)COC[C@@H]3O[C@H](CC(=O)NCc4ccncn4)CC[C@H]32)c1 | inactive | inactive | inactive |
